# Measured values published in the supplement of paper PMC11417369.
# This is one part of the list.
# Tested on: PfAP2-HC AP2 domain (GST-tagged)
# Assay: gcPBM binding intensity (ln(normalized median fluorescence intensity)); higher = stronger DNA binding
# How it was run: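 Binding intensity is the highest Masliner-normalised natural-log median intensity over replicate spots in either probe orientation. To obtain it, GST-tagged P. falciparum DNA-binding domains made in E. coli were incubated for 1 h on an Agilent 4 × 180k array of primer-extended double-stranded 36-bp intergenic genomic probes plus negative controls. Detection used Alexa488 anti-GST antibody with scanning at 488 nm.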
row,Sequence,gcPBM binding intensity (ln)
1,GTTAATTCATTAAGGACACACAAAAAAAAAAAAAAA [CACACA_site998],9.61
2,ATGAATATAAAATATACACACTTATATATTGAATGA [CACACA_site4274],9.74
3,AAAAAATTCAAAATCACACATAAAAAAGGACACATA [CACACA_site5972],9.86
4,TCATATTATAAAAAATGTACAAGGAAAAAATATATA [XGTACX_site337],9.74
5,TAATTTTGTAAAAATTGTACATATTTATCTTTTTAT [XGTACX_site4305],9.65
6,ACATTATATAAAATATGTACACATAAATAAATAAAT [XGTACX_site5031],9.92
7,AAAAAAAAAAAAAACACACACATATAATATATTTAA [CACACA_site1337],10.3
8,CCTACAATTCGTAATACACACACATATATATATATA [CACACA_site9251],9.94
9,TTTTTTTTTTACTTCACACATATACATTTATATTTA [CACACA_site4385],9.76
10,TAAACATACAGATACACACACACACCCACAGAGACA [CACACA_site4429],10.6
11,AGAATCACCAAATATGTACACACCTTAACATGTTTA [CACACA_site2068],9.95
12,ATATAACATAATGGATGTACATGTATAAATATAAAA [XGTACX_site8228],10
13,ATATATATGGTCATTTGTACATATCGTGAGAGCTGC [XGTACX_site4117],9.6
14,TATATTATAAATTAATGTACGTAATTTTTTTTTTTT [XGTACX_site2500],9.5
15,ATAATAATATTATTTTGTACATATGTGCTTATTTAT [XGTACX_site5540],9.85
16,TTTTGTCAACATTTTTATATTAGGTCTTGAACGATT [GTGCAC_negctrl_site72],9.38
17,GTATAATTTAAAAAGTGTACATAAAGTTTTTATTAA [XGTACX_site1090],9.44
18,AGTAATAAGTAATTTACACACATATTATAGCATCAC [CACACA_site6971],10.3
19,TTATTACCATATTTTGTACACACATCTTTATCTCAA [CACACA_site9054],10

row,Sequence,gcPBM binding intensity (ln)
1,CTTGGGCGTCATAATGAACACACAATTATATTATGA [CACACA_site9297],9.51
2,AAAATAATAAATAACGCATGCGTGTGCATTTTATTC [TGCATGCA_site898],10.2
3,ATATATACAAATCCTTTTTTCCAAGATGGAAAAAGA [CACACA_negctrl_site382],9.42
4,ATTATATAATCTATATGTACATATATATATATATAT [XGTACX_site4970],9.97
5,TATATATAAGCGCATGCACACGCAAAGGTATATAAA [CACACA_site8107],10.1
6,CAAAAGAAGGTAAACACACACACACGCATACAAAAA [CACACA_site7724],10.4
7,CAAAACCTTATATGTACACACATATACATCACCCTT [CACACA_site3170],10.3
8,ATAGAATAAAACTATACACACCTATATTTAAACATA [CACACA_site5106],9.91
9,ATTTCTCTATCGTAATGTACATAAAAAATGAAAAAA [XGTACX_site1201],9.44
10,TGTTTATTTTTAAAAAGTACATATTTAAAAAACTTC [XGTACX_site271],9.24
11,TTTTCTAAATAAATAGTGCATTTATTATATATACAT [GTGCAC_site9766],9.7
12,TATTGTTACTTTATATGTACTAATTAAACATATACA [XGTACX_site6363],9.74
13,AAAAATACCTTATATATACACACTATGTTTTTCTTT [CACACA_site1192],10.1
14,AAATATTAGTAACACAGACACACAAAAAAAAAAAAA [CACACA_site2175],9.84
15,AAAAAAAAAAAAAAAAGTACACAAATTTTAAAAATT [XGTACX_site3006],9.51
16,TATCTCTTCATATTGTGTACATATTTTTATTTATTG [XGTACX_site4038],9.89
17,AATTACTACATAAATACATGCATAATTATATATATA [TGCATGCA_site783],9.59
18,AACACTTCTTATTTATGTACTTAATTCCCAACGGAA [XGTACX_site4818],9.48
19,ATAAAATATAAAAATTGTACGATAATAATAGTAGGA [XGTACX_site8951],9.88

row,Sequence,gcPBM binding intensity (ln)
1,AAATGAATAAATAAGACACACACGAAAATAAGTAAA [CACACA_site71],10.4
2,TGATCAGATAGACACACACACAAAAAAAAAAAAAAA [CACACA_site7805],10.1
3,TTATAAAATTACTTGGTGCATTAGAATATTTCAATA,9.35
4,AAATATATATATATATATATATATATATATATATAT [CACACA_negctrl_site677],9.47
5,TTTTCATTCAATTATATTTATATATATATATATATA [GTGCAC_negctrl_site538],9.6
6,TACATGTATAAATAAGCACACATGTGGATATGTACA [CACACA_site93],10
7,CAAAATATTTTTATAACACACATATATATAATGTGC [CACACA_site4767],9.7
8,ACTTATATATTATGTTGTCCGTCCATTCTCTTTATC [XGTACX_site3769],9.95
9,AAAATTTAAAGCATGACACACAATTATATTATGTGC [CACACA_site3435],9.76
10,TTGTGAAATAAAATTTGTACACACATATATATATAT [XGTACX_site1078],9.96
11,TTTTTTTTGGAATTCACACAAATATAACATGGGTAT [CACACA_site5185],9.56
12,TTCTTTTCTTTAGTAGAATGTAAAAAATATAATCTT [XGTACX_negctrl_site290],9.41
13,TACACAAGGGGAAAAATATATATATATATATATATA [TGCATGCA_negctrl_site217],9.47
14,TAAAAAATTTTATATTCACACACATATATATATATA [CACACA_site8109],9.89
15,TAAAAGTATATATATACACACATAAATATATATGTA [CACACA_site663],9.84
16,TTTTATAAGGTGAAAAGTACATATAACTTATTTTAC [XGTACX_site5572],9.54
17,TTAAATGATGTAAACACACACATATACATTATTATA [CACACA_site3162],10
18,TATTGTCTATAATAAACACACAATATTAAAAATATA [CACACA_site6624],9.57
19,ATCTTTCCTATTTGTAGTACAAAAAAAAAAAAAAAA [XGTACX_site5485],9.15
